# Source: the supplement of paper PMC8728848
# The other results are listed elsewhere or left out.
# B1: SP15308A-bot-339-19-339 (Bacteroides ovatus) (protein)
# chain: ACNNEWEDEQYEQYISFKSPIPAGGEGVTDIYVRYKEDGKVTYRLPIVVSGSTTNTLDREVHIAVDKDTLETLNIERFSIHRPGLWYTALEEDKYDFPKTVHISAGSSVEQLNIDFNLQGIDMLEKWVLPLTIVDDPSYNYKSHPRKNYAKALLRVIPFNNYSGSYTSSAMKVYTYINGKPDTNARTANKRTGYVINDNTVFFYAGLISEDLDKEVREKYKINVHFNEDGTLHMEQGDPTNKMKFELIGTPTYSKTSVMDATRPYLERRYVQIMFEYDFEDFSYGGNGVDVIPIKYKVEGSMTLQRNINTQIPDEDQQIEW
# Tests used:
# Assay in all cases: glycan array binding signal (z-score within array); higher = stronger binding
# Details in all cases: glycan notation: IUPAC condensed, linker removed
# GlcNAc(b1-3)Gal(b1-4)Glc = biological target: GlcNAc(b1-3)Gal(b1-4)Glc
# Summary of the method: (§1)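 Glycan array data were curated from 3228 arrays in the Consortium for Functional Glycomics database and kept only where the protein sequence was available. Glycan names were converted to IUPAC-condensed notation, and columns mapping to the same glycan were averaged. The binding signal is a within-array Z-score, averaged across arrays of the same protein sequence at different concentrations or buffers and across linkers. Negative Z-scores can be read as non-binding.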
# [1] = biological target: GlcNAc(b1-3)Gal(b1-4)GlcNAc
# Summary of the method: as §1
# [2] = biological target: GlcNAc(b1-3)Gal(b1-4)GlcNAc(b1-2)Man(a1-3)[GlcNAc(b1-3)Gal(b1-4)GlcNAc(b1-2)Man(a1-6)]Man(b1-4)GlcNAc(b1-4)GlcNAc
# Summary of the method: as §1
# [3] = biological target: GlcNAc(b1-3)Gal(b1-4)GlcNAc(b1-2)Man(a1-3)[GlcNAc(b1-3)Gal(b1-4)GlcNAc(b1-2)Man(a1-6)]Man(b1-4)GlcNAc(b1-4)[Fuc(a1-6)]GlcNAc
# Summary of the method: as §1
# [4] = biological target: GlcNAc(b1-3)Gal(b1-4)GlcNAc(b1-2)[GlcNAc(b1-3)Gal(b1-4)GlcNAc(b1-6)]Man(a1-6)[GlcNAc(b1-3)Gal(b1-4)GlcNAc(b1-2)Man(a1-3)]Man(b1-4)GlcNAc(b1-4)GlcNAc
# Summary of the method: as §1
# [5] = biological target: GlcNAc(b1-3)Gal(b1-4)GlcNAc(b1-3)Gal(b1-4)GlcNAc
# Summary of the method: as §1
# [6] = biological target: GlcNAc(b1-3)Gal(b1-4)GlcNAc(b1-3)Gal(b1-4)GlcNAc(b1-2)Man(a1-3)[GlcNAc(b1-3)Gal(b1-4)GlcNAc(b1-3)Gal(b1-4)GlcNAc(b1-2)Man(a1-6)]Man(b1-4)GlcNAc(b1-4)GlcNAc
# Summary of the method: as §1
# [7] = biological target: GlcNAc(b1-3)Gal(b1-4)GlcNAc(b1-3)Gal(b1-4)GlcNAc(b1-2)Man(a1-3)[GlcNAc(b1-3)Gal(b1-4)GlcNAc(b1-3)Gal(b1-4)GlcNAc(b1-2)Man(a1-6)]Man(b1-4)GlcNAc(b1-4)[Fuc(a1-6)]GlcNAc
# Summary of the method: as §1
# [8] = biological target: GlcNAc(b1-3)Gal(b1-4)GlcNAc(b1-3)Gal(b1-4)GlcNAc(b1-2)[GlcNAc(b1-3)Gal(b1-4)GlcNAc(b1-3)Gal(b1-4)GlcNAc(b1-6)]Man(a1-6)[GlcNAc(b1-3)Gal(b1-4)GlcNAc(b1-3)Gal(b1-4)GlcNAc(b1-2)Man(a1-3)]Man(b1-4)GlcNAc(b1-4)[Fuc(a1-6)]GlcNAc
# Summary of the method: as §1
# [9] = biological target: GlcNAc(b1-3)Gal(b1-4)GlcNAc(b1-3)Gal(b1-4)GlcNAc(b1-3)Gal(b1-4)GlcNAc(b1-2)Man(a1-3)[GlcNAc(b1-3)Gal(b1-4)GlcNAc(b1-3)Gal(b1-4)GlcNAc(b1-3)Gal(b1-4)GlcNAc(b1-2)Man(a1-6)]Man(b1-4)GlcNAc(b1-4)GlcNAc
# Summary of the method: as §1
# [10] = biological target: GlcNAc(b1-3)Gal(b1-4)GlcNAc(b1-3)Gal(b1-4)GlcNAc(b1-3)Gal(b1-4)GlcNAc(b1-2)Man(a1-3)[GlcNAc(b1-3)Gal(b1-4)GlcNAc(b1-3)Gal(b1-4)GlcNAc(b1-3)Gal(b1-4)GlcNAc(b1-2)Man(a1-6)]Man(b1-4)GlcNAc(b1-4)[Fuc(a1-6)]GlcNAc
# Summary of the method: as §1
# [11] = biological target: GlcNAc(b1-3)Gal(b1-4)GlcNAc(b1-3)Gal(b1-4)GlcNAc(b1-3)Gal(b1-4)GlcNAc(b1-2)[GlcNAc(b1-3)Gal(b1-4)GlcNAc(b1-3)Gal(b1-4)GlcNAc(b1-3)Gal(b1-4)GlcNAc(b1-6)]Man(a1-6)[GlcNAc(b1-3)Gal(b1-4)GlcNAc(b1-3)Gal(b1-4)GlcNAc(b1-3)Gal(b1-4)GlcNAc(b1-2)Man(a1-3)]Man(b1-4)GlcNAc(b1-4)[Fuc(a1-6)]GlcNAc
# Summary of the method: as §1
# [12] = biological target: GlcNAc(b1-3)Gal(b1-4)GlcNAc(b1-3)Gal(b1-4)GlcNAc(b1-3)Gal(b1-4)GlcNAc(b1-3)Gal(b1-4)GlcNAc(b1-2)Man(a1-3)[GlcNAc(b1-3)Gal(b1-4)GlcNAc(b1-3)Gal(b1-4)GlcNAc(b1-3)Gal(b1-4)GlcNAc(b1-3)Gal(b1-4)GlcNAc(b1-2)Man(a1-6)]Man(b1-4)GlcNAc(b1-4)GlcNAc
# Summary of the method: as §1
# [13] = biological target: GlcNAc(b1-3)Gal(b1-4)GlcNAc(b1-3)Gal(b1-4)GlcNAc(b1-3)Gal(b1-4)GlcNAc(b1-3)Gal(b1-4)GlcNAc(b1-2)Man(a1-3)[GlcNAc(b1-3)Gal(b1-4)GlcNAc(b1-3)Gal(b1-4)GlcNAc(b1-3)Gal(b1-4)GlcNAc(b1-3)Gal(b1-4)GlcNAc(b1-2)Man(a1-6)]Man(b1-4)GlcNAc(b1-4)[Fuc(a1-6)]GlcNAc
# Summary of the method: as §1
# [14] = biological target: GlcNAc(b1-3)Gal(b1-4)GlcNAc(b1-3)Gal(b1-4)GlcNAc(b1-3)Gal(b1-4)GlcNAc(b1-3)Gal(b1-4)GlcNAc(b1-2)[GlcNAc(b1-3)Gal(b1-4)GlcNAc(b1-3)Gal(b1-4)GlcNAc(b1-3)Gal(b1-4)GlcNAc(b1-3)Gal(b1-4)GlcNAc(b1-6)]Man(a1-6)[GlcNAc(b1-3)Gal(b1-4)GlcNAc(b1-3)Gal(b1-4)GlcNAc(b1-3)Gal(b1-4)GlcNAc(b1-3)Gal(b1-4)GlcNAc(b1-2)Man(a1-3)]Man(b1-4)GlcNAc(b1-4)[Fuc(a1-6)]GlcNAc
# Summary of the method: as §1
# [15] = biological target: GlcNAc(b1-3)Gal(b1-4)GlcNAc(b1-3)Gal(b1-4)GlcNAc(b1-3)GalNAc
# Summary of the method: as §1
# [16] = biological target: GlcNAc(b1-3)Gal(b1-4)GlcNAc(b1-3)GalNAc
# Summary of the method: as §1
# [17] = biological target: GlcNAc(b1-3)Gal(b1-4)GlcNAc(b1-3)[GlcNAc(b1-3)Gal(b1-4)GlcNAc(b1-3)]GalNAc
# Summary of the method: as §1
# [18] = biological target: GlcNAc(b1-3)Gal(b1-4)GlcNAc(b1-6)[Gal(b1-3)]GalNAc
# Summary of the method: as §1
# [19] = biological target: GlcNAc(b1-3)Gal(b1-4)GlcNAc(b1-6)[GlcNAc(b1-3)Gal(b1-3)]GalNAc
# Summary of the method: as §1
# [20] = biological target: GlcNAc(b1-3)Gal(b1-4)GlcNAc(b1-6)[GlcNAc(b1-3)]Gal(b1-4)GlcNAc
# Summary of the method: as §1
# GlcNAc(b1-3)GalNAc = biological target: GlcNAc(b1-3)GalNAc
# Summary of the method: as §1
# GlcNAc(b1-3)Man = biological target: GlcNAc(b1-3)Man
# Summary of the method: as §1
# [21] = biological target: GlcNAc(b1-3)[GlcNAc(b1-4)][GlcNAc(b1-6)]GlcNAc
# Summary of the method: as §1
# [22] = biological target: GlcNAc(b1-3)[GlcNAc(b1-6)]Gal(b1-4)GlcNAc
# Summary of the method: as §1
# [23] = biological target: GlcNAc(b1-3)[GlcNAc(b1-6)]GalNAc
# Summary of the method: as §1
# [24] = biological target: GlcNAc(b1-4)Gal(b1-4)GlcNAc
# Summary of the method: as §1
# GlcNAc(b1-4)GlcNAc = biological target: GlcNAc(b1-4)GlcNAc
# Summary of the method: as §1
# [25] = biological target: GlcNAc(b1-4)GlcNAc(b1-4)GlcNAc
# Summary of the method: as §1
# [26] = biological target: GlcNAc(b1-4)GlcNAc(b1-4)GlcNAc(b1-4)GlcNAc(b1-4)GlcNAc
# Summary of the method: as §1
# [27] = biological target: GlcNAc(b1-4)GlcNAc(b1-4)GlcNAc(b1-4)GlcNAc(b1-4)GlcNAc(b1-4)GlcNAc
# Summary of the method: as §1
# [28] = biological target: GlcNAc(b1-4)[GlcNAc(b1-6)]GalNAc
# Summary of the method: as §1
# [29] = biological target: GlcNAc(b1-6)Gal(b1-4)GlcNAc
# Summary of the method: as §1
# GlcNAc(b1-6)GalNAc = biological target: GlcNAc(b1-6)GalNAc
# Summary of the method: as §1
# [30] = biological target: GlcNAc6S(b1-3)Gal(b1-4)GlcNAc
# Summary of the method: as §1
# Kdn(a2-3)Gal(b1-3)GalNAc = biological target: Kdn(a2-3)Gal(b1-3)GalNAc
# Summary of the method: as §1
# Kdn(a2-3)Gal(b1-3)GlcNAc = biological target: Kdn(a2-3)Gal(b1-3)GlcNAc
# Summary of the method: as §1
binder,measurement,setting,value
B1,glycan array binding signal (z-score),GlcNAc(b1-3)Gal(b1-4)Glc,0.17
same,glycan array binding signal (z-score),[1],-0.233
same,glycan array binding signal (z-score),[2],-0.006
same,glycan array binding signal (z-score),[3],0.083
same,glycan array binding signal (z-score),[4],0.155
same,glycan array binding signal (z-score),[5],0.055
same,glycan array binding signal (z-score),[6],0.131
same,glycan array binding signal (z-score),[7],0.848
same,glycan array binding signal (z-score),[8],-0.141
same,glycan array binding signal (z-score),[9],-0.146
same,glycan array binding signal (z-score),[10],-0.318
same,glycan array binding signal (z-score),[11],0.006
same,glycan array binding signal (z-score),[12],-0.226
same,glycan array binding signal (z-score),[13],-0.027
same,glycan array binding signal (z-score),[14],0.133
same,glycan array binding signal (z-score),[15],-0.503
same,glycan array binding signal (z-score),[16],0.5
same,glycan array binding signal (z-score),[17],0.148
same,glycan array binding signal (z-score),[18],0.223
same,glycan array binding signal (z-score),[19],-0.227
same,glycan array binding signal (z-score),[20],-0.086
same,glycan array binding signal (z-score),GlcNAc(b1-3)GalNAc,-0.484
same,glycan array binding signal (z-score),GlcNAc(b1-3)Man,-0.188
same,glycan array binding signal (z-score),[21],-0.192
same,glycan array binding signal (z-score),[22],-0.304
same,glycan array binding signal (z-score),[23],-0.544
same,glycan array binding signal (z-score),[24],-0.193
same,glycan array binding signal (z-score),GlcNAc(b1-4)GlcNAc,-0.421
same,glycan array binding signal (z-score),[25],-0.575
same,glycan array binding signal (z-score),[26],-0.452
same,glycan array binding signal (z-score),[27],0.044
same,glycan array binding signal (z-score),[28],-0.019
same,glycan array binding signal (z-score),[29],0.154
same,glycan array binding signal (z-score),GlcNAc(b1-6)GalNAc,0.492
same,glycan array binding signal (z-score),[30],-0.262
same,glycan array binding signal (z-score),Kdn(a2-3)Gal(b1-3)GalNAc,-0.434
same,glycan array binding signal (z-score),Kdn(a2-3)Gal(b1-3)GlcNAc,-0.316
